At least one peptide structure holds a part that was inferred or is arguable (an end, a ring closure or a residue). Starred links: 1 amine or outer side, 2 acyl side, 3 side chain; linkers in the order of their positions; H or OH if unused. Non-standard residues stand in square brackets, D forms with d. Residues, ends and D or L forms follow the SMILES beside them. Groups on a side chain read outwards from the residue. *: point of attachment. C18 diacid = O=C(O)CCCCCCCCCCCCCCCCC(=O)*; C17 diacid = O=C(O)CCCCCCCCCCCCCCCC(=O)*; γGlu = O=C(O)[C@H](CCC(=O)[*:2])N[*:1]; NMeY = CN[C@@H](Cc1ccc(O)cc1)C(=O)O; AEEA = NCCOCCOCC(=O)O; Aib = CC(C)(N)C(=O)O
Molecular target: T1, human GLP-1R (Homo sapiens, UniProt P43220)
T1 construct: HEK-293T cells overexpressing full-length human GLP-1R; FLAG (N); host or cells: HEK-293T
Test: Human GLP1R agonist activity, intracellular cAMP accumulation
Assay type: cell-based
Settings: HEK-293T cells overexpressing human GLP-1R, 1 hr, read-out: Human GLP1R cAMP EC50, HEK293T
Method: Cells are cultured per the manufacturer's protocol in DMEM with 10% fetal bovine serum and 1 μg/mL puromycin and stored in frozen aliquots to be used as assay ready cells. On the day of the assay, cells are removed from frozen storage, washed two times in 1× Kreb's Ringer Buffer (Zenbio, Research Triangle Park, N.C.), and re-suspended to a concentration of 4×10^5 cells/mL in 1× Kreb's Ringer Buffer. […] Cells are incubated with test compound for 1 hr at room temperature in the dark, and cAMP accumulation is measured using the Cisbio HiRange cAMP assay kit (Bedford, Mass.) per the manufacturer's protocol. Anti-cAMP antibody and d2-cAMP tracer reagents diluted in lysis/detection buffer are incubated in the dark for 1 hr, and results are measured on an Envision plate reader (Perkin Elmer, Waltham, Mass.). Data is normalized using 1 nm GLP-1 as 100% activity, and DMSO alone as 0% activity.

T1 sequence (P43220 24-463): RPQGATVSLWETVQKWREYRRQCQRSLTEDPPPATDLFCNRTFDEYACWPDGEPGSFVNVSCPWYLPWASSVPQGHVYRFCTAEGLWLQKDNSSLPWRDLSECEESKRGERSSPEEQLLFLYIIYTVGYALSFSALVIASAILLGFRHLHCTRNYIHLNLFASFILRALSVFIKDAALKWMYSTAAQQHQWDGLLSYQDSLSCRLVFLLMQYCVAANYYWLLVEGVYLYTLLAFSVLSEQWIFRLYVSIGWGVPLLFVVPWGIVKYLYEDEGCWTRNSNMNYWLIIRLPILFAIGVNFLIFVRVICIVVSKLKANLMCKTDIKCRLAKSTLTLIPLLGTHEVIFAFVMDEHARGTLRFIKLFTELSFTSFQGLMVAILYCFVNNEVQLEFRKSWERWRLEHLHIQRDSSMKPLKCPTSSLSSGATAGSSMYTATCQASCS

Compared with CC[C@H](C)[C@H](NC(=O)[C@H](Cc1ccccc1)NC(=O)[C@@H](NC(=O)CNC(=O)[C@H](CCC(=O)O)NC(=O)C(C)(C)NC(=O)[C@@H](N)Cc1ccc(O)cc1)[C@@H](C)O)C(=O)N[C@@H](CO)C(=O)N[C@@H](CC(=O)O)C(=O)N[C@@H](Cc1ccc(O)cc1)C(=O)N[C@@H](CO)C(=O)N[C@H](C(=O)NC(C)(C)C(=O)N[C@@H](CC(C)C)C(=O)N[C@@H](CC(=O)O)C(=O)N[C@@H](CCCCN)C(=O)N[C@@H](C)C(=O)N[C@@H](CCCCNC(=O)COCCOCCNC(=O)COCCOCCNC(=O)CC[C@H](NC(=O)CCCCCCCCCCCCCCCCC(=O)O)C(=O)O)C(=O)N[C@@H](CCC(N)=O)C(=O)N[C@@H](C)C(=O)N[C@@H](CC(=O)O)C(=O)N[C@@H](Cc1ccccc1)C(=O)N[C@H](C(=O)N[C@@H](CC(N)=O)C(=O)N[C@@H](Cc1c[nH]c2ccccc12)C(=O)N[C@@H](CC(C)C)C(=O)N[C@@H](CC(C)C)C(=O)N[C@@H](C)C(=O)N[C@@H](CCC(N)=O)C(=O)N[C@@H](CCCNC(=N)N)C(=O)NCC(=O)O)C(C)C)[C@@H](C)CC [Compound 171] (H-Y[Aib]EGTFISDYSI[Aib]LDKAK([AEEA-AEEA-γGlu-C18 diacid])QADFVNWLLAQRG-OH), CC[C@H](C)[C@H](NC(=O)[C@H](CO)NC(=O)[C@H](Cc1ccc(O)cc1)NC(=O)[C@H](CC(=O)O)NC(=O)[C@H](CO)NC(=O)[C@@H](NC(=O)[C@H](Cc1ccccc1)NC(=O)[C@@H](NC(=O)CNC(=O)[C@H](CCC(=O)O)NC(=O)C(C)(C)NC(=O)[C@@H](N)Cc1ccc(O)cc1)[C@@H](C)O)[C@@H](C)CC)C(=O)N[C@@H](C)C(=O)NC(C)(C)C(=O)N[C@@H](CC(=O)O)C(=O)N[C@@H](CCCCN)C(=O)N[C@@H](C)C(=O)N[C@@H](CCCCNC(=O)COCCOCCNC(=O)COCCOCCNC(=O)CC[C@H](NC(=O)CCCCCCCCCCCCCCCCC(=O)O)C(=O)O)C(=O)N[C@@H](CCC(N)=O)C(=O)N[C@@H](C)C(=O)N[C@@H](CC(=O)O)C(=O)N[C@@H](Cc1ccccc1)C(=O)N[C@H](C(=O)N[C@@H](CCC(=O)O)C(=O)N[C@@H](Cc1c[nH]c2ccccc12)C(=O)N[C@@H](CC(C)C)C(=O)N[C@@H](CC(C)C)C(=O)N[C@@H](C)C(=O)N[C@@H](CCC(N)=O)C(=O)N[C@@H](CCCNC(=N)N)C(=O)NCC(=O)O)C(C)C [Compound 165] (H-Y[Aib]EGTFISDYSIA[Aib]DKAK([AEEA-AEEA-γGlu-C18 diacid])QADFVEWLLAQRG-OH) is higher in EC50: 0.0832 µM for the first, over 1 µM for the second.

Compared with CC[C@H](C)[C@H](NC(=O)[C@H](Cc1ccccc1)NC(=O)[C@@H](NC(=O)CNC(=O)[C@H](CCC(=O)O)NC(=O)C(C)(C)NC(=O)[C@H](Cc1ccc(O)cc1)NC)[C@@H](C)O)C(=O)N[C@@H](CO)C(=O)N[C@@H](CC(=O)O)C(=O)N[C@@H](Cc1ccc(O)cc1)C(=O)N[C@@H](CO)C(=O)N[C@H](C(=O)NC(C)(C)C(=O)N[C@@H](CC(C)C)C(=O)N[C@@H](CC(=O)O)C(=O)N[C@@H](CCCNC(=N)N)C(=O)NC(C)(C)C(=O)N[C@@H](C)C(=O)N[C@@H](C)C(=O)NC(C)(C)C(=O)N[C@@H](CCCCNC(=O)COCCOCCNC(=O)COCCOCCNC(=O)CC[C@H](NC(=O)CC[C@H](NC(=O)CCCCCCCCCCCCCCCCC(=O)O)C(=O)O)C(=O)O)C(=O)N[C@@H](Cc1ccccc1)C(=O)N[C@H](C(=O)N[C@@H](CC(N)=O)C(=O)N[C@@H](Cc1c[nH]c2ccccc12)C(=O)N[C@@H](CC(C)C)C(=O)N[C@@H](CC(C)C)C(=O)N[C@@H](C)C(=O)N[C@@H](CCC(N)=O)C(=O)N[C@@H](CCCNC(=N)N)C(=O)NCC(=O)O)C(C)C)[C@@H](C)CC [Compound 212] (H-[NMeY][Aib]EGTFISDYSI[Aib]LDR[Aib]AA[Aib]K([AEEA-AEEA-γGlu-γGlu-C18 diacid])FVNWLLAQRG-OH), CC[C@H](C)[C@H](NC(=O)[C@H](CO)NC(=O)[C@H](Cc1ccc(O)cc1)NC(=O)[C@H](CC(=O)O)NC(=O)[C@H](CO)NC(=O)[C@@H](NC(=O)[C@H](Cc1ccccc1)NC(=O)[C@@H](NC(=O)CNC(=O)[C@H](CCC(=O)O)NC(=O)C(C)(C)NC(=O)[C@H](Cc1ccc(O)cc1)NC)[C@@H](C)O)[C@@H](C)CC)C(=O)N[C@@H](C)C(=O)N[C@@H](CCCCNC(=O)COCCOCCNC(=O)COCCOCCNC(=O)CC[C@H](NC(=O)CC[C@H](NC(=O)CCCCCCCCCCCCCCCC(=O)O)C(=O)O)C(=O)O)C(=O)N[C@@H](CC(=O)O)C(=O)N[C@@H](CCCNC(=N)N)C(=O)NC(C)(C)C(=O)N[C@@H](C)C(=O)N[C@@H](CCC(N)=O)C(=O)NC(C)(C)C(=O)N[C@@H](CC(N)=O)C(=O)N[C@@H](Cc1ccccc1)C(=O)N[C@H](C(=O)N[C@@H](CC(N)=O)C(=O)N[C@@H](Cc1c[nH]c2ccccc12)C(=O)N[C@@H](CC(C)C)C(=O)N[C@@H](CC(C)C)C(=O)N[C@@H](C)C(=O)N[C@@H](CCC(N)=O)C(=O)N[C@@H](CCCNC(=N)N)C(=O)O)C(C)C [Compound 7] (H-[NMeY][Aib]EGTFISDYSIAK([AEEA-AEEA-γGlu-γGlu-C17 diacid])DR[Aib]AQ[Aib]NFVNWLLAQR-OH) is 14-fold higher in EC50: 0.0427 µM for the first, 0.589 µM for the second.

With CC[C@H](C)[C@H](NC(=O)[C@H](Cc1ccccc1)NC(=O)[C@@H](NC(=O)CNC(=O)[C@H](CCC(=O)O)NC(=O)C(C)(C)NC(=O)[C@H](Cc1ccc(O)cc1)NC)[C@@H](C)O)C(=O)N[C@@H](CO)C(=O)N[C@@H](CC(=O)O)C(=O)N[C@@H](Cc1ccc(O)cc1)C(=O)N[C@@H](CO)C(=O)N[C@H](C(=O)NC(C)(C)C(=O)N[C@@H](CC(C)C)C(=O)N[C@@H](CC(=O)O)C(=O)N[C@@H](CCCNC(=N)N)C(=O)NC(C)(C)C(=O)N[C@@H](C)C(=O)N[C@@H](CCC(N)=O)C(=O)NC(C)(C)C(=O)N[C@@H](CCCCNC(=O)CNC(=O)CNC(=O)CNC(=O)CNC(=O)CNC(=O)CC[C@H](NC(=O)CC[C@H](NC(=O)CCCCCCCCCCCCCCCCC(=O)O)C(=O)O)C(=O)O)C(=O)N[C@@H](Cc1ccccc1)C(=O)N[C@H](C(=O)N[C@@H](CC(N)=O)C(=O)N[C@@H](Cc1c[nH]c2ccccc12)C(=O)N[C@@H](CC(C)C)C(=O)N[C@@H](CC(C)C)C(=O)N[C@@H](C)C(=O)N[C@@H](CCC(N)=O)C(=O)N[C@@H](CCCNC(=N)N)C(=O)NCC(=O)O)C(C)C)[C@@H](C)CC [Compound 210] the EC50 was 0.0107 µM.

Same assay, conditions: read-out: Human GLP1R cAMP EC50, HEK293T, HEK-293T cells overexpressing human GLP-1R, 1 hr

Work on CC[C@H](C)[C@H](NC(=O)[C@H](CO)NC(=O)[C@H](Cc1ccc(O)cc1)NC(=O)[C@H](CC(=O)O)NC(=O)[C@H](CO)NC(=O)[C@@H](NC(=O)[C@H](Cc1ccccc1)NC(=O)[C@@H](NC(=O)CNC(=O)[C@H](CCC(=O)O)NC(=O)C(C)(C)NC(=O)[C@H](Cc1ccc(O)cc1)NC)[C@@H](C)O)[C@@H](C)CC)C(=O)N[C@@H](C)C(=O)N[C@@H](CCCCNC(=O)CNC(=O)CNC(=O)CNC(=O)CNC(=O)CNC(=O)CC[C@H](NC(=O)CC[C@H](NC(=O)CCCCCCCCCCCCCCCCC(=O)O)C(=O)O)C(=O)O)C(=O)N[C@@H](CC(=O)O)C(=O)N[C@@H](CCCNC(=N)N)C(=O)NC(C)(C)C(=O)N[C@@H](C)C(=O)N[C@@H](CCC(N)=O)C(=O)NC(C)(C)C(=O)N[C@@H](CC(N)=O)C(=O)N[C@@H](Cc1ccccc1)C(=O)N[C@H](C(=O)N[C@@H](CC(N)=O)C(=O)N[C@@H](Cc1c[nH]c2ccccc12)C(=O)N[C@@H](CC(C)C)C(=O)N[C@@H](CC(C)C)C(=O)N[C@@H](C)C(=O)N[C@@H](CCC(N)=O)C(=O)N[C@@H](CCCNC(=N)N)C(=O)N1CCC[C@H]1C(=O)N[C@@H](CO)C(=O)N[C@@H](CO)C(=O)NCC(=O)N[C@@H](C)C(=O)N1CCC[C@H]1C(=O)N1CCC[C@H]1C(=O)N1CCC[C@H]1C(=O)N[C@@H](CO)C(N)=O)C(C)C [Compound 34] yielded an EC50 of at least 1 µM.

From patent publication US20230143604A1, “QW DOSING OF GIP RECEPTOR AGONIST PEPTIDE COMPOUNDS AND USES THEREOF” (TAKEDA PHARMACEUTICAL COMPANY LIMITED, priority 2020, published 2023)
